Data taken from PubChem BioAssay AID1457 (National Center for Advancing Translational Sciences (NCATS), 2008).
Among all 210,000 compounds or so, about 730 (0.35%) were called active. This list was built around the results that the source calls inconclusive (neither active nor inactive); the mix of calls is not that of the screen. Calls come from the whole dose curve; as a rule, active = well fitted inhibition curve with a large enough effect; inconclusive = small, poorly fitted or top-dose-only effect; inactive = no such curve, though single readings can be large or run the other way. A potency beside an inconclusive call is a rough fit, not a confirmed value.

test: qHTS Assay for Identifying the Cell-Membrane Permeable IMPase Inhibitors: Potentiation with Lithium; conditions: CHO-M1 cells, IP1 TR-FRET (IP-One), carbachol + lithium; series mostly up to 59.4 µM; activity, negative = IMPase inhibition: at the top concentration; note: nearly all actives have a fitted effect of over 50% in size;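 for activity, negative = IMPase inhibition: plate controls were basal vehicle for no effect and high inhibitor control for full effect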
In short: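 CHO-M1, 2000 cells/well, 16–30 h culture; cpd + low Li+, 30 min 37C; lysis with d2-IP1/Eu-anti-IP1 Ab, 10 min RT; TR-FRET 665/620 ratio and 620 channel; AC50 via Hill.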
Potency is the fitted concentration of half-maximal effect.

activity, negative = IMPase inhibition, inactive:
O=C1COc2ccc(C(=O)CSc3nnc(-c4cccs4)n3Cc3ccccc3)cc2N1 14.1% [at 38.3 µM]
CC(C)NC(=O)NC(=O)COC(=O)c1ccc(OC(F)(F)F)cc1 3.65%
CC(NC(=O)c1ccc2c(c1)OCCO2)c1ccc(S(N)(=O)=O)cc1 (centres undefined) -3.44%
COc1ccc(Cn2cccc(NC(=O)Nc3cccc(C#N)c3)c2=O)cc1 -12.8% [at 38.3 µM]
Cc1nn(CC(O)CN2c3ccccc3Sc3ccccc32)c(C)c1Br (centres undefined) 12.9% [at 38.3 µM]
N=C(N)SCCc1ccc(CCSC(=N)N)cc1 3.38%
CCC(=O)Nc1ccc(F)c(Cl)c1 20.8% [at 38.3 µM]
CCNc1ncc2nc(C)c(=O)n(C3CC3)c2n1 -15.2%
CN(c1cccc(NC(=O)CN(c2cccc(Cl)c2)S(=O)(=O)c2ccc(Cl)cc2)c1)S(C)(=O)=O 8.62%
NCCC(=O)c1ccccc1N -1.61%
O=C1c2ccccc2C(=O)c2c(NC3CCCCC3)ccc(Nc3ccc(S(=O)(=O)O)cc3)c21 11.2%
Cc1c(N=NC2=C(O)CCCC2=O)c(=O)n(-c2ccccc2)n1C 12.3%
O=C(CCCN1CCOCC1)c1ccc2c(c1)OCCO2 -5.62% [at 38.3 µM]
CC(=O)c1cccc(NC(=S)NC(=O)c2ccccc2C)c1 15.8%
NC(=O)CN1CCN(S(=O)(=O)c2ccc(Br)cc2)CC1 -6.87%
S=c1[nH]nc(Nc2ccccc2Cl)s1 6.02%

Potency, inconclusive:
CCCCn1c(SCC(=O)c2ccc(OC)c(OC)c2)nc2cc(S(N)(=O)=O)ccc21 22.4 µM [inhibitor, single point]
COC(=O)c1cccc(NC(=O)c2nn(C)c(=O)c3ccccc23)c1 28.2 µM [inhibitor, single point]
Cc1ccc(-c2cc(C(=O)Nc3sc4c(c3C(=O)NCc3ccco3)CCC4)[nH]n2)c(O)c1 3.16 µM [inhibitor, partial curve]
C=CCc1cc2c(oc(=O)c3ccccc32)c(C)c1O 28.2 µM [inhibitor, single point]
O=C(Nc1ccc2c(c1)OCO2)c1sc2cc(Cl)ccc2c1Cl 20 µM [inhibitor, single point]
COc1ccc(CCC(=O)N/N=C\c2cccs2)cc1 3.16 µM [inhibitor, single point]
COc1ccc(N2CCN(c3ccc(NC(=O)c4ccc5c(c4)OCO5)cc3C#N)CC2)cc1 5.01 µM [inhibitor, single point]
COc1ccccc1CNC(=O)/C=C/c1cc2c(cc1Br)OCO2 31.6 µM [inhibitor, single point]
Cc1c(N=Cc2cc(Br)cc(Br)c2O)cccc1C(=O)O 2.24 µM [inhibitor, partial curve]
NC(N)=NS(=O)(=O)c1ccc(NC(=S)NC(=O)c2ccc3c(c2)OCO3)cc1 12.6 µM [inhibitor, single point]
CCSc1nnc(NC(=O)Cc2ccccc2OC)s1 28.2 µM [inhibitor, single point]
CCOC(=O)c1[nH]ncc1CN1CCCC(C(=O)c2ccc(SC)cc2)C1 (centres undefined) 12.6 µM [inhibitor, single point]
O=C(O)C1OC(Oc2cc3oc(-c4ccccc4)cc(=O)c3c(O)c2O)C(O)C(O)C1O (centres undefined) 12.6 µM [inhibitor, partial curve]
Cc1c(-c2ccccc2)nc(N)c(C#N)c1-c1ccco1 15.8 µM [inhibitor, single point]
Nc1cc2sc(-c3ccc(C(=O)O)cc3)nc2cc1Cl 11.2 µM [inhibitor, partial curve]
COc1ccc(-c2cc([C@H](O)C3CCCCN3)c3ccccc3n2)cc1 (some centres undefined) 1.12 µM [inhibitor, single point]
Cc1ccc2c(ccc(=S)n2C)c1 11.2 µM [inhibitor, partial curve]
CCOC(=O)CSc1nc(N)c(C#N)c(-c2cccs2)c1C#N 11.2 µM [inhibitor, single point]
Cc1ccc(CSc2ccc(-c3cccs3)nn2)cc1 15.8 µM [inhibitor, single point]
NC(N)=Nc1nc2ccc(Br)cc2c(=O)[nH]1 28.2 µM [inhibitor, single point]
COc1ccc(-c2nnc3ccc(SCC(=O)Nc4cc(C)on4)nn23)cc1OC 28.2 µM [inhibitor, single point]
CCOc1ccc(-n2nnnc2-c2nc3ccccc3s2)cc1 28.2 µM [inhibitor, single point]
CC(=O)C1=C(O)C(=O)N(c2cccc(C(=O)O)c2)C1c1ccc(F)cc1 (centres undefined) 8.91 µM [inhibitor, partial curve]
Cc1cc(NC2C3CC4CC(C3)CC2C4)n2nnnc2n1 (centres undefined) 28.2 µM [inhibitor, single point]
CCn1c(=NC(=O)CN2C(=O)CCC2=O)sc2c(OC)ccc(OC)c21 28.2 µM [inhibitor, single point]
CCC(=O)Nc1nnc(SCC(=O)c2ccc3c(c2)Cc2ccccc2-3)s1 22.4 µM [inhibitor, single point]
C=CCNc1sc(C(=O)c2cccs2)c(N)c1C#N 28.2 µM [inhibitor, single point]
Cc1cccc(CSc2nc3c(cc2C#N)CCC3)c1 28.2 µM [inhibitor, single point]
CCOC(=O)c1c(-c2ccc(C)cc2)cn2ccccc12 28.2 µM [inhibitor, single point]

Potency, active:
COc1ccc2[nH]c3c(=S)nc[nH]c3c2c1 2.82 µM
S=c1[nH]nc(-c2ccc3ccccc3n2)n1-c1cc(Cl)cc(Cl)c1 10 µM
Cc1ccc(C)c(NC(=O)c2cc3c([nH]c4ccccc43)c(C)n2)c1 11.2 µM
CC(=O)c1cc2cc(O)ccc2o1 11.2 µM
